# Out of some 310,000 compounds screened, about 2,200 (0.71%) showed an effect of 50% or more. Effects have a minus sign here. The list shows a part of the results.
# Biological target: human ether-à-go-go-related gene (hERG) potassium channel (human, UniProt Q12809)
# Assay: primary screen, population patch clamp on CHO cells stably expressing hERG
# human ether-à-go-go-related gene (hERG) potassium channel, sequence (Q12809 whole entry, looked up): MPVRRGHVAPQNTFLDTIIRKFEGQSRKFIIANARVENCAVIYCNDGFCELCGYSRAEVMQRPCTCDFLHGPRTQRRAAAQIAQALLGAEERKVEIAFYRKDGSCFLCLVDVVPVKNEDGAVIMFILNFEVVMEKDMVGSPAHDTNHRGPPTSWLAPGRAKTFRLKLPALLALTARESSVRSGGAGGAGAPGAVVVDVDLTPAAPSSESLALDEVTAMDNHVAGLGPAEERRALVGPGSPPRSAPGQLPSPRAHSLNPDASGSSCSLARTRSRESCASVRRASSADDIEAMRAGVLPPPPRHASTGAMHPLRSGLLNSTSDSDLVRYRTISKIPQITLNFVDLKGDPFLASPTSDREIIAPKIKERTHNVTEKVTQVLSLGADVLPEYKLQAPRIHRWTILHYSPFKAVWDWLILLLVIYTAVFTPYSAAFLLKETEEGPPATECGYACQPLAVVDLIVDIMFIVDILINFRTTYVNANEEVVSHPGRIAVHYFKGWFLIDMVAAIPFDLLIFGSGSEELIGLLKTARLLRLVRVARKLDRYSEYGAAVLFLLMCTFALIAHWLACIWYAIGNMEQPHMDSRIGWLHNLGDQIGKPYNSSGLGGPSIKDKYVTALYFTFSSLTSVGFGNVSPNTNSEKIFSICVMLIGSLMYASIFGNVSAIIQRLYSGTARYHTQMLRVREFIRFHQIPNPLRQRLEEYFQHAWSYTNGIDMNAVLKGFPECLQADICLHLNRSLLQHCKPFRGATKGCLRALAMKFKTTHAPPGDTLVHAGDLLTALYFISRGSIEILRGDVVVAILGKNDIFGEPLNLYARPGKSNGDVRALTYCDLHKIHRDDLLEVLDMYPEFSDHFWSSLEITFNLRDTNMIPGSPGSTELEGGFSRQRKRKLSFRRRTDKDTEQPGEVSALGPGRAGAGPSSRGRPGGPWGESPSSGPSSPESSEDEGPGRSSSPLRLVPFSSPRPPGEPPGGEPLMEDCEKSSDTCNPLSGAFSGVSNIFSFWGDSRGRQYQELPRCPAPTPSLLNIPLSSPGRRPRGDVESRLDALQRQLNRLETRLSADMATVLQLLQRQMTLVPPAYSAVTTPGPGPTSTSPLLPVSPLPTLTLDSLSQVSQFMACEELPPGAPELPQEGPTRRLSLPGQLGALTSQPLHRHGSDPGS
row,SMILES,"hERG current change (%, negative = inhibition) at 1uM [%]"
1,CCC(C)[C@H](NC(=O)NCCCOC(C)C)C(=O)OC (stereo partly shown),1.14
2,O=C1C=C(c2cccs2)C[C@H](c2ccccc2)[C@H]1n1nnc([N+](=O)[O-])n1,4.04
3,CC[C@@H](C)[C@H](CNC)NC[C@@H](Cc1cccc2ccccc12)NCCc1cccc(C(F)(F)F)c1,7.77
4,Cc1ccccc1N(CC(=O)Nc1ccc(F)cc1)S(C)(=O)=O,10.5
5,Cc1ccc(CNC(=O)c2ccc3c(=O)n(CCCN4CCCC4=O)c(=S)[nH]c3c2)cc1,11.9
6,CCOC(=O)CSc1nnc(-c2ccc(S(=O)(=O)N3CCC(C)CC3)cc2)o1,-2.31
7,CC(C)=CCCC(C)CN1CCC(n2nccc2NC(=O)C2CCCC2)CC1 (stereo not shown),-50.3
8,Cc1ccc(N2C(=O)N(CC(=O)N3CCCc4ccccc43)C(=O)C2C)cc1 (stereo not shown),7.42
9,CC(=O)Nc1cc(C)nn1-c1nc(C)cc(C)n1,2.16
10,O=S(=O)(NC1CCCCC1)c1ccc(Cl)s1,-10.7
11,Cc1ccc(S(=O)(=O)NC(=O)Nc2cccc(C)n2)cc1,19.3
12,CCOc1ccc(S(=O)(=O)Nc2cc(OC)ccc2OC)cc1,1.2
13,CCOc1ccccc1CN1CCNC(=O)C1CC(=O)NCCC1=CCCCC1 (stereo not shown),-11.3
14,CCC1=C(OC(=O)N(CC)CC)N2C(=O)OC(=NCC(=O)OC)[C@]2(C)[C@H]2C1=CC[C@H]1C(=O)NC(=O)[C@H]12,6.15
15,COc1ccccc1CNC(=O)C1(c2ccc(Cl)cc2)CC1,0.547
16,Cc1ccc(C(=O)C2CCN(CC(=O)Nc3ccc(N(C)C)cc3)CC2)cc1,-5.85
17,COc1ccc(-c2c[n+]3c4n2CCCCC4=C(c2ccccc2)C3)cc1.[Br-],-74.7
18,CCOC(=O)N1CCN(Cc2nnc(-c3ccccc3C)o2)CC1.Cl,12.5
19,S=C(c1ccccc1)N1CCSCC1,11.9
20,C=CCN(C/C(=N\O)c1sc(C(=O)OCC)nc1C)c1cccc(Br)c1,10.4
21,C=CCSC1=NC(N)=C(C#N)C2(CCCCC2)C1C(N)=O (stereo not shown),6.67
22,Clc1ccc(CSc2cc3c(nn2)-c2ccccc2CC3)cc1Cl,12.4

row,SMILES,"hERG current change (%, negative = inhibition) at 1uM [%]"
1,COc1ccc2nc(NC(=O)[C@@H]3CCCN3C(=O)c3cccs3)sc2c1,-9.23
2,COC(=O)c1cc(=O)n(C2CC2)c(=NC2CC2)s1,-12.4
3,CC1CCCCN1C(=O)C(Cc1ccccc1)N1C(=O)C2CCCCC2C1=O (stereo not shown),10.7
4,O=C(Cc1c(F)cccc1Cl)N/N=C/c1cccnc1,14.6
5,COc1ccc([N+](=O)[O-])cc1NC(=O)CCN1CCN(c2ccccc2)CC1,3.73
6,Cc1ccccc1N(C(=O)c1snc(C(N)=O)c1N)C(C(=O)NCC1CCCO1)c1ccc(F)cc1 (stereo not shown),12.9
7,Cc1ccc(NC(=O)CCn2nc([N+](=O)[O-])cc2C)nc1,8.24
8,CCN1CCN(CC(=O)Nc2nc3ccccc3s2)CC1.O=CO,0.501
9,CCc1noc(C)c1C(=O)NNC(=O)c1ccccc1Cl,19.4
10,CC(=O)N1c2ccc(S(=O)(=O)NCCC(=O)Nc3cccc(Cl)c3)cc2CC1C (stereo not shown),6.6
11,COCc1nnc(NC(=O)COc2ccc3c(c2)OCO3)s1,11.6
12,O=C(c1ccc(CS(=O)c2cccc(Cl)c2)o1)N1CCN(c2ccccn2)CC1 (stereo not shown),-4.54
13,CC(=O)Nc1ccc(S(=O)(=O)Nc2ccccc2N2CCOCC2)cc1Cl,6.69
14,CN1CCN(S(=O)(=O)c2ccc(NC(=S)NC(=O)c3ccccc3)cc2)CC1,7.58
15,COc1ccc(F)cc1C(=O)C1CCCN(Cc2ccc3c(c2)OCCO3)C1 (stereo not shown),6.59
16,CCOC(=O)c1c(C)n(Cc2ccccc2)c2ccc(OCC(O)CNC(C)(C)C)cc12 (stereo not shown),-16.4
17,Cn1c(CNc2ccccn2)c(C#N)c2ccccc21,2.32
18,CCOc1ccccc1N(C)S(=O)(=O)c1ccc2c(c1)N(C(C)=O)CCO2,13.9
19,CO/N=C/c1ccc(N2CCN(C(=O)c3cccc(C(F)(F)F)c3)CC2)c([N+](=O)[O-])c1,-2.38
20,O=C(CN1C(=O)/C(=C/c2ccccc2)SC1=S)NC1CCS(=O)(=O)C1 (stereo not shown),16.6
21,O=C(N1CCC(O)(c2cccnc2)CC1)C12CC3CC(CC(C3)C1)C2,4.48
22,O=C(c1oc(=O)c2ccccc2c1-c1ccccc1)N1CCC(O)CC1,1.07

row,SMILES,"hERG current change (%, negative = inhibition) at 1uM [%]"
1,O=C(NCc1ccc(F)cc1)C1CCN(C(=O)Nc2ccc(F)cc2)CC1,-7.77
2,COc1ccc(N(CC(=O)Nc2ccc3c(c2)OCO3)S(=O)(=O)c2ccccc2)cc1OC,8.29
3,NC(=O)c1ccc(NC(=O)COc2coc(CN3CCc4ccccc4C3)cc2=O)cc1,11
4,CCC(C)NC(=O)C1CCCN(C(=O)NC2CCCCC2)C1 (stereo not shown),16.1
5,CC(C)Cn1c(=O)c2c(nc3n2CCCN3CCc2ccccc2)n(C)c1=O,-15.8
6,CN1CCN(C(=O)C2CCCN(S(=O)(=O)c3ccccc3)C2)CC1 (stereo not shown),9.99
7,Cc1ccc(-n2c(C)cc(C)c(C#N)c2=O)cc1Cl,6.89
8,Cl.OC(COc1ccc(Cl)c2ccccc12)CN1CCN(c2ccccn2)CC1 (stereo not shown),2.51
9,CC(NC(=O)COC(=O)c1cc(=O)[nH]c2ccccc12)c1ccccc1 (stereo not shown),14.9
10,CCCCc1ccc(S(=O)(=O)NC2CCS(=O)(=O)C2)cc1 (stereo not shown),7
11,CCCNC(=O)CS(=O)(=O)Cc1nc(-c2ccccc2C)oc1C,8.57
12,CCC(COC)NC(=O)c1ccc(OC)c(OC2CCN(C(C)=O)CC2)c1 (stereo not shown),12.7
13,O=C(NCC1CCN(Cc2ccccc2F)CC1)Nc1cccc(Br)c1,-6.45
14,COc1cc(C(=O)OCCc2cc3ccccc3c(=O)o2)cc(OC)c1OC,14.6
15,Cc1ccc(N2C(=O)C(F)(F)C2c2ccccc2)cc1 (stereo not shown),21.1
16,COc1ccccc1-c1noc(-c2cccnc2)n1,9.81
17,N#Cc1ccccc1NC(=O)C1SC(=Nc2ccccc2)C(C(=O)Nc2ccc(Cl)cc2)=C1N (stereo not shown),6.56
18,CCCCn1c(-c2csc(CCC)c2)n[nH]c1=S,16.1
19,Cc1cc(C(=O)Nc2ccc(S(=O)(=O)N3CCOCC3)cc2)ccc1[N+](=O)[O-],9.85
20,COc1cc(C)c(CN2CC=C(c3ccc(F)cc3)CC2)cc1C,5.21
21,COc1ccc(CN2C(=O)c3ccccc3C2=O)cc1C(=O)O,18
22,O=c1[nH]c(-c2ccccc2)nc2sc(-c3ccccc3)cc12,6.98

row,SMILES,"hERG current change (%, negative = inhibition) at 1uM [%]"
1,Cc1cccc(N2CCN(C(=O)c3cc4c(=O)n(C)c5ccccc5c4n3C)CC2C)c1 (stereo not shown),7.27
2,COc1ccccc1N=Nc1c(O)[nH]c2ccc(Br)cc12,10.3
3,COC(=O)CNC(=O)Cn1nc(C)c([N+](=O)[O-])c1C,5.4
4,CC(C)Cn1c(N)c(C(=O)COC(=O)C2CC(=O)N(Cc3ccccc3Cl)C2)c(=O)n(C)c1=O (stereo not shown),-1.64
5,Br.CCCN(CCC)C1CCc2cccc(O)c2C1 (stereo not shown),13.3
6,O=C(CSc1ncn[nH]1)N(C1CCCCC1)C1CCCCC1,-18.8
7,COc1cccc(Oc2c(C)oc3c(CN4CCCCC4)c(O)ccc3c2=O)c1,8.5
8,CCCOc1ccc(C(=O)CCC(=O)OCC(=O)N(C)c2c(N)n(Cc3ccccc3)c(=O)[nH]c2=O)cc1,8.97
9,O=C(Nc1cc(Cl)ccc1O)C1CCCO1 (stereo not shown),3.36
10,O=C(O)C(c1ccccc1)N1C(=O)/C(=C\c2ccc(O)c(O)c2)SC1=S (stereo not shown),14.6
11,O=C(NCC1CCCO1)c1cccc(S(=O)(=O)N(Cc2ccccc2)c2ccccc2)c1 (stereo not shown),-14.7
12,CCS(=O)(=O)Nc1ccc(C(=O)OC)cc1,9.25
13,Cc1nn(C)c(C)c1CNC(=O)Nc1cccc(Cl)c1,8.61
14,COc1cc(/C=N/n2c(C3CCCCC3)n[nH]c2=S)ccc1O,10.2
15,CNC(=O)Nc1cc(C)nn1C,16.1
16,CCn1cc(C(=O)O)c(=O)c2cc(F)c(N3CCN(C(=S)NC(=O)c4cc(OC)cc(OC)c4)CC3)cc21,18.5
17,Cc1ccc(S(=O)(=O)N2CCCC2CNC(=O)C(=O)Nc2ccc(F)cc2)cc1 (stereo not shown),-9.62
18,Cc1ccc(NC(=O)Nc2cc(-c3ccccc3)nn2C)cc1Cl,10.5
19,COc1ccc(C(=O)CSc2nnc(CNC(=O)c3ccc(OC)c(OC)c3)n2C)cc1,3.74
20,c1ccc2c3nnc4n(c-3nc2c1)CCCS4,7.79
21,O=C(N/N=C/c1ccccn1)c1ccc(Cl)cc1,11.4
22,CCCOc1ccc(-c2nnn(CC(=O)Nc3cccc(C(=O)OC)c3)n2)cc1,-0.984
